{"source": "the supplement of paper PMC8728848", "test_in_all_cases": "glycan array binding signal (z-score within array); higher = stronger binding", "settings_in_all_cases": "glycan notation: IUPAC condensed, linker removed", "key": {"[1]": {"biological_target": "Gal(b1-4)GlcNAc(b1-3)Gal(b1-4)GlcNAc(b1-6)[Gal(b1-3)]GalNAc", "outline": "(§1)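 Arrays were curated from the Consortium for Functional Glycomics database, 3228 in total, and kept only where the protein sequence was available. Binding is expressed as a within-array Z-score. This score was averaged across arrays of the same protein sequence at different concentrations or buffers and across linkers, and negative values can be read as non-binding.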"}, "[2]": {"biological_target": "Gal(b1-4)GlcNAc(b1-3)Gal(b1-4)[Fuc(a1-3)]GlcNAc(b1-3)Gal(b1-4)[Fuc(a1-3)]GlcNAc", "outline": "as §1"}, "[3]": {"biological_target": "Gal(b1-4)GlcNAc(b1-3)GalNAc", "outline": "as §1"}, "[4]": {"biological_target": "Gal(b1-4)GlcNAc(b1-3)[Fuc(a1-3)GlcNAc(b1-6)]Gal(b1-4)Glc", "outline": "as §1"}, "[5]": {"biological_target": "Gal(b1-4)GlcNAc(b1-3)[Gal(b1-4)GlcNAc(b1-6)]Gal(b1-4)GlcNAc", "outline": "as §1"}, "[6]": {"biological_target": "Gal(b1-4)GlcNAc(b1-3)[GlcNAc(b1-6)]Gal(b1-4)GlcNAc", "outline": "as §1"}, "[7]": {"biological_target": "Gal(b1-4)GlcNAc(b1-6)Gal(b1-4)GlcNAc", "outline": "as §1"}, "[8]": {"biological_target": "Gal(b1-4)GlcNAc(b1-6)GalNAc", "outline": "as §1"}, "[9]": {"biological_target": "Gal(b1-4)GlcNAc(b1-6)[Gal(b1-3)]GalNAc", "outline": "as §1"}, "[10]": {"biological_target": "Gal(b1-4)GlcNAc(b1-6)[Gal(b1-4)GlcNAc(b1-3)]GalNAc", "outline": "as §1"}, "Gal(b1-4)GlcNAc6P": {"biological_target": "Gal(b1-4)GlcNAc6P", "outline": "as §1"}, "Gal(b1-6)Gal": {"biological_target": "Gal(b1-6)Gal", "outline": "as §1"}, "Gal3S(b1-3)GalNAc": {"biological_target": "Gal3S(b1-3)GalNAc", "outline": "as §1"}, "Gal3S(b1-3)GlcNAc": {"biological_target": "Gal3S(b1-3)GlcNAc", "outline": "as §1"}, "[11]": {"biological_target": "Gal3S(b1-3)[Fuc(a1-4)]GlcNAc", "outline": "as §1"}, "Gal3S(b1-4)Glc": {"biological_target": "Gal3S(b1-4)Glc", "outline": "as §1"}, "Gal3S(b1-4)Glc6S": {"biological_target": "Gal3S(b1-4)Glc6S", "outline": "as §1"}, "Gal3S(b1-4)GlcNAc": {"biological_target": "Gal3S(b1-4)GlcNAc", "outline": "as §1"}, "[12]": {"biological_target": "Gal3S(b1-4)[Fuc(a1-3)]Glc6S", "outline": "as §1"}, "[13]": {"biological_target": "Gal3S(b1-4)[Fuc(a1-3)]GlcNAc", "outline": "as §1"}, "[14]": {"biological_target": "Gal3S(b1-4)[Fuc(a1-3)]GlcNAc6S", "outline": "as §1"}, "Gal3S4S(b1-4)GlcNAc": {"biological_target": "Gal3S4S(b1-4)GlcNAc", "outline": "as §1"}, "Gal3S6S(b1-4)GlcNAc": {"biological_target": "Gal3S6S(b1-4)GlcNAc", "outline": "as §1"}, "Gal3S6S(b1-4)GlcNAc6S": {"biological_target": "Gal3S6S(b1-4)GlcNAc6S", "outline": "as §1"}, "Gal4S(b1-4)GlcNAc": {"biological_target": "Gal4S(b1-4)GlcNAc", "outline": "as §1"}, "Gal4S6S(b1-4)GlcNAc": {"biological_target": "Gal4S6S(b1-4)GlcNAc", "outline": "as §1"}, "Gal6P(b1-4)GlcNAc": {"biological_target": "Gal6P(b1-4)GlcNAc", "outline": "as §1"}, "Gal6S(b1-3)GlcNAc": {"biological_target": "Gal6S(b1-3)GlcNAc", "outline": "as §1"}, "Gal6S(b1-3)GlcNAc6S": {"biological_target": "Gal6S(b1-3)GlcNAc6S", "outline": "as §1"}, "Gal6S(b1-4)Glc": {"biological_target": "Gal6S(b1-4)Glc", "outline": "as §1"}, "Gal6S(b1-4)Glc6S": {"biological_target": "Gal6S(b1-4)Glc6S", "outline": "as §1"}, "Gal6S(b1-4)GlcNAc": {"biological_target": "Gal6S(b1-4)GlcNAc", "outline": "as §1"}, "Gal6S(b1-4)GlcNAc6S": {"biological_target": "Gal6S(b1-4)GlcNAc6S", "outline": "as §1"}, "GalNAc(a1-3)Gal": {"biological_target": "GalNAc(a1-3)Gal", "outline": "as §1"}, "GalNAc(a1-3)GalNAc": {"biological_target": "GalNAc(a1-3)GalNAc", "outline": "as §1"}, "[15]": {"biological_target": "GalNAc(a1-3)GalNAc(b1-3)Gal(a1-4)Gal(b1-4)Glc", "outline": "as §1"}, "[16]": {"biological_target": "GalNAc(a1-3)GalNAc(b1-3)Gal(a1-4)Gal(b1-4)GlcNAc", "outline": "as §1"}, "GalNAc(b1-3)Gal": {"biological_target": "GalNAc(b1-3)Gal", "outline": "as §1"}, "[17]": {"biological_target": "GalNAc(b1-3)Gal(a1-4)Gal(b1-4)GlcNAc", "outline": "as §1"}, "[18]": {"biological_target": "GalNAc(b1-3)Gal(a1-4)Gal(b1-4)GlcNAc(b1-3)Gal(b1-4)Glc", "outline": "as §1"}, "[19]": {"biological_target": "GalNAc(b1-3)Gal(a1-6)Gal(b1-4)Glc", "outline": "as §1"}, "GalNAc(b1-3)GalNAc": {"biological_target": "GalNAc(b1-3)GalNAc", "outline": "as §1"}, "GalNAc(b1-3)GlcNAc": {"biological_target": "GalNAc(b1-3)GlcNAc", "outline": "as §1"}, "GalNAc(b1-4)Gal(b1-4)Glc": {"biological_target": "GalNAc(b1-4)Gal(b1-4)Glc", "outline": "as §1"}, "GalNAc(b1-4)GlcNAc": {"biological_target": "GalNAc(b1-4)GlcNAc", "outline": "as §1"}}, "note": "The list shows a part of the results.", "data": [{"binder": "PfulAvr4 2 (Pseudocercospora fuligena) (protein) HHHHHHDYKDDDDKAKPIKPFACPPKDFTTTKCQGPVDCLYANPLSCLGYIQCVCDDDACSTATPYAKSCPTGLAWVEKLKRCDGIKKSACPKKMYEGS", "values": [{"measurement": "glycan array binding signal (z-score)", "setting": "[1]", "value": 0.036}, {"measurement": "glycan array binding signal (z-score)", "setting": "[2]", "value": -0.28}, {"measurement": "glycan array binding signal (z-score)", "setting": "[3]", "value": -0.202}, {"measurement": "glycan array binding signal (z-score)", "setting": "[4]", "value": -0.302}, {"measurement": "glycan array binding signal (z-score)", "setting": "[5]", "value": -0.411}, {"measurement": "glycan array binding signal (z-score)", "setting": "[6]", "value": 5.97}, {"measurement": "glycan array binding signal (z-score)", "setting": "[7]", "value": -0.246}, {"measurement": "glycan array binding signal (z-score)", "setting": "[8]", "value": -0.217}, {"measurement": "glycan array binding signal (z-score)", "setting": "[9]", "value": 0.263}, {"measurement": "glycan array binding signal (z-score)", "setting": "[10]", "value": -0.229}, {"measurement": "glycan array binding signal (z-score)", "setting": "Gal(b1-4)GlcNAc6P", "value": -0.085}, {"measurement": "glycan array binding signal (z-score)", "setting": "Gal(b1-6)Gal", "value": -0.333}, {"measurement": "glycan array binding signal (z-score)", "setting": "Gal3S(b1-3)GalNAc", "value": 0.098}, {"measurement": "glycan array binding signal (z-score)", "setting": "Gal3S(b1-3)GlcNAc", "value": -0.314}, {"measurement": "glycan array binding signal (z-score)", "setting": "[11]", "value": -0.025}, {"measurement": "glycan array binding signal (z-score)", "setting": "Gal3S(b1-4)Glc", "value": -0.127}, {"measurement": "glycan array binding signal (z-score)", "setting": "Gal3S(b1-4)Glc6S", "value": -0.075}, {"measurement": "glycan array binding signal (z-score)", "setting": "Gal3S(b1-4)GlcNAc", "value": -0.22}, {"measurement": "glycan array binding signal (z-score)", "setting": "[12]", "value": -0.272}, {"measurement": "glycan array binding signal (z-score)", "setting": "[13]", "value": 0.108}, {"measurement": "glycan array binding signal (z-score)", "setting": "[14]", "value": 0.222}, {"measurement": "glycan array binding signal (z-score)", "setting": "Gal3S4S(b1-4)GlcNAc", "value": -0.378}, {"measurement": "glycan array binding signal (z-score)", "setting": "Gal3S6S(b1-4)GlcNAc", "value": -0.207}, {"measurement": "glycan array binding signal (z-score)", "setting": "Gal3S6S(b1-4)GlcNAc6S", "value": -0.34}, {"measurement": "glycan array binding signal (z-score)", "setting": "Gal4S(b1-4)GlcNAc", "value": -0.417}, {"measurement": "glycan array binding signal (z-score)", "setting": "Gal4S6S(b1-4)GlcNAc", "value": -0.372}, {"measurement": "glycan array binding signal (z-score)", "setting": "Gal6P(b1-4)GlcNAc", "value": -0.344}, {"measurement": "glycan array binding signal (z-score)", "setting": "Gal6S(b1-3)GlcNAc", "value": -0.37}, {"measurement": "glycan array binding signal (z-score)", "setting": "Gal6S(b1-3)GlcNAc6S", "value": 0.027}, {"measurement": "glycan array binding signal (z-score)", "setting": "Gal6S(b1-4)Glc", "value": -0.235}, {"measurement": "glycan array binding signal (z-score)", "setting": "Gal6S(b1-4)Glc6S", "value": -0.383}, {"measurement": "glycan array binding signal (z-score)", "setting": "Gal6S(b1-4)GlcNAc", "value": -0.285}, {"measurement": "glycan array binding signal (z-score)", "setting": "Gal6S(b1-4)GlcNAc6S", "value": -0.361}, {"measurement": "glycan array binding signal (z-score)", "setting": "GalNAc(a1-3)Gal", "value": -0.345}, {"measurement": "glycan array binding signal (z-score)", "setting": "GalNAc(a1-3)GalNAc", "value": -0.253}, {"measurement": "glycan array binding signal (z-score)", "setting": "[15]", "value": -0.301}, {"measurement": "glycan array binding signal (z-score)", "setting": "[16]", "value": -0.251}, {"measurement": "glycan array binding signal (z-score)", "setting": "GalNAc(b1-3)Gal", "value": -0.265}, {"measurement": "glycan array binding signal (z-score)", "setting": "[17]", "value": -0.178}, {"measurement": "glycan array binding signal (z-score)", "setting": "[18]", "value": -0.24}, {"measurement": "glycan array binding signal (z-score)", "setting": "[19]", "value": -0.38}, {"measurement": "glycan array binding signal (z-score)", "setting": "GalNAc(b1-3)GalNAc", "value": -0.221}, {"measurement": "glycan array binding signal (z-score)", "setting": "GalNAc(b1-3)GlcNAc", "value": -0.272}, {"measurement": "glycan array binding signal (z-score)", "setting": "GalNAc(b1-4)Gal(b1-4)Glc", "value": 0.532}, {"measurement": "glycan array binding signal (z-score)", "setting": "GalNAc(b1-4)GlcNAc", "value": -0.27}]}]}
